EC50, IC50 and ED50 data for 18 compounds are collected here from ChEMBL document CHEMBL1138336, “Design and synthesis of novel and potent amide linked PPARgamma/delta dual agonists” (Bioorg Med Chem Lett, 2007).

Experiment [1] addresses T1, Peroxisome proliferator-activated receptor alpha (Homo sapiens, UniProt Q07869).
T1 sequence (Q07869 whole entry): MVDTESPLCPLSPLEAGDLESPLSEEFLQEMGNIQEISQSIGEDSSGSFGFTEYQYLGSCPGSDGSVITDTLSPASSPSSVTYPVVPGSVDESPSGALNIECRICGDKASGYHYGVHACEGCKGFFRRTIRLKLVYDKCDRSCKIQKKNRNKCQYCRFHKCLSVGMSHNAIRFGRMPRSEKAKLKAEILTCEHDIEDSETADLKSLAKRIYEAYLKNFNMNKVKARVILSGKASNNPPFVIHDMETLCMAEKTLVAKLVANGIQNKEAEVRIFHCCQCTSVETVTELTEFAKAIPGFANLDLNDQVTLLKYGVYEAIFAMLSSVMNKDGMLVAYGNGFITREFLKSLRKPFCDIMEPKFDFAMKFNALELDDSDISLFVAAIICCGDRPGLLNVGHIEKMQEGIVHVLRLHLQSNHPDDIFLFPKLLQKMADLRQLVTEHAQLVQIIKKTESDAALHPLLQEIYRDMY

In experiment [2] the target is T1, Peroxisome proliferator-activated receptor alpha. This is another data set of the same source.
Experiment [3] deals with T2, Peroxisome proliferator-activated receptor delta (Homo sapiens, UniProt Q03181).
T2 sequence (Q03181 whole entry): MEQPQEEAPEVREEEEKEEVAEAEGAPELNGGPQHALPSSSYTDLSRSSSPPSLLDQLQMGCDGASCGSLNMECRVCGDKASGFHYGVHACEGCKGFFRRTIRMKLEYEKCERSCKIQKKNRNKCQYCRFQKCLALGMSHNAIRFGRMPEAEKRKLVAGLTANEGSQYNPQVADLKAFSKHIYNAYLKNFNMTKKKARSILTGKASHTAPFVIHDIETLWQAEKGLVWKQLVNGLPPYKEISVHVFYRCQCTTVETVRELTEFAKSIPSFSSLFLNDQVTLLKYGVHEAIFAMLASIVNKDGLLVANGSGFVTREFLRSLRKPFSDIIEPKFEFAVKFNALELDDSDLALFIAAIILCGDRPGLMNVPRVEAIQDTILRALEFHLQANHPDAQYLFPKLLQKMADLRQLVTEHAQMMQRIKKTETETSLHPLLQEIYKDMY

The target in experiment [4] is T2, Peroxisome proliferator-activated receptor delta. The source holds these as a separate data set.
Experiment [5] concerns the target T3, Peroxisome proliferator-activated receptor gamma (Homo sapiens, UniProt P37231).
T3 sequence (P37231 whole entry): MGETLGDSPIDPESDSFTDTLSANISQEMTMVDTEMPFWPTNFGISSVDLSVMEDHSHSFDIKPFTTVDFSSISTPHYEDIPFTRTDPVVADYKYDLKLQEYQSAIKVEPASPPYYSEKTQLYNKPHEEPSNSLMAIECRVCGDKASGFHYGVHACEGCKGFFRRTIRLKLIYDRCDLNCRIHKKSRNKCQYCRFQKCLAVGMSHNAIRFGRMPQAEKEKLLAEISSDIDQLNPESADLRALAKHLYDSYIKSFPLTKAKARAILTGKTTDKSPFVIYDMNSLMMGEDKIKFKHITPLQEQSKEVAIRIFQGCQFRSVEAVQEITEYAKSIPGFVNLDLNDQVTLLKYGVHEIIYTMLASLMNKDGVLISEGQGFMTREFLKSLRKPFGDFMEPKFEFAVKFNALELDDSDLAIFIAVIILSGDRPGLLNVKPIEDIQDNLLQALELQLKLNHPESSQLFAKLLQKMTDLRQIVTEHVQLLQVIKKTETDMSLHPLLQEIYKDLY

Experiment [6] addresses T3, Peroxisome proliferator-activated receptor gamma. The source holds these as a separate data set.
The species named for experiment [7] is Rattus norvegicus. The experiment is described as follows: animal or person. The format is functional. The settings on record: ZDF, po, 168 h.

As a reminder, the EC50 is the concentration at which the effect is half-maximal. In general, IC50 refers to the midpoint of a concentration-inhibition curve. With `Cc1cc(Oc2cccc(CNC(=O)c3ccc(C(F)(F)F)cc3C)c2)ccc1OC(C)(C)C(=O)O`, the half-maximal effective concentration (EC50) in experiment [1] stood at 921 nM; in experiment [3], 38 nM. Also, the 50% inhibitory concentration (IC50) came out at 1760 nM in experiment [2] and 3 nM in experiment [4].

`Cc1cc(Oc2cccc(CNC(=O)c3ccc(C(F)(F)F)cc3C(F)(F)F)c2)ccc1OC(C)(C)C(=O)O`: the IC50 is 10300 nM in experiment [2] and 40 nM in experiment [4]. The compound also came in with an EC50 in experiment [3] of 2870 nM.

Regarding `COc1cc(C(F)(F)F)ccc1C(=O)NCc1cccc(Oc2ccc(OC(C)(C)C(=O)O)c(C)c2)c1`, the half-maximal effective concentration (EC50) in experiment [1] came to 329 nM. The compound also displayed an IC50 in experiment [2] of 463 nM.

In the case of `Cc1cc(Oc2cccc(CNC(=O)c3cc4cc(Cl)ccc4[nH]3)c2)ccc1CCC(=O)O`, the EC50 in experiment [1] came to 2460 nM; in experiment [3], 47 nM. Also, the IC50 in experiment [2] was 10000 nM; in experiment [4] it was 3 nM.

In turn, `Cc1cc(Oc2cccc(CNC(=O)c3ccc(OC(F)(F)F)cc3C)c2)ccc1OC(C)(C)C(=O)O` displayed an EC50 in experiment [1] of 420 nM. This compound also displayed an IC50 in experiment [2] of 4850 nM.

For `COc1ccc(C(=O)NCc2cccc(Oc3ccc(OC(C)(C)C(=O)O)c(C)c3)c2)c(C)c1`, in experiment [1], the EC50 is 1500 nM. In experiment [2], this compound gave an IC50 of 4200 nM.

Regarding `Cc1ccc(CNC(=O)c2ccc(C(F)(F)F)cc2F)cc1Oc1ccc(OC(C)(C)C(=O)O)c(C)c1`, in experiment [1], the midpoint of the response, the EC50, lay at 792 nM. For the same compound, in experiment [2], inhibition was half-maximal at 188 nM (IC50).

As to `Cc1cc(CNC(=O)c2ccc(C(F)(F)F)cc2F)cc(Oc2ccc(OC(C)(C)C(=O)O)c(C)c2)c1`, a half-maximal effect in experiment [3] (EC50) was put at 4 nM. Besides, it took 5 nM to reach half-maximal inhibition in experiment [4] (IC50).

`Cc1ccc(Oc2ccc(OC(C)(C)C(=O)O)c(C)c2)cc1CNC(=O)c1ccc(C(F)(F)F)cc1F`: the EC50 in experiment [1] is 877 nM. Besides, the IC50 in experiment [2] is 331 nM.

As to `Cc1cc(Oc2ccc(F)c(CNC(=O)c3ccc(C(F)(F)F)cc3F)c2)ccc1OC(C)(C)C(=O)O`, a half-maximal effect in experiment [1] (EC50) was put at 1050 nM. The compound further came in with an IC50 in experiment [2] of 384 nM.

For `Cc1cc(Oc2cccc(CNC(=O)c3ccc(C(F)(F)F)cc3C)c2)ccc1CCC(=O)O`, the EC50 in experiment [5] worked out at 345 nM. For the same compound, the IC50 in experiment [6] stood at 126 nM.

In experiment [5], `Cc1cc(Oc2cccc(CNC(=O)c3c(C)c4cc(Cl)ccc4n3C)c2)ccc1CCC(=O)O` returned a concentration giving a half-maximal response (EC50) of 44 nM. Moreover, the IC50 in experiment [6] worked out at 35 nM.

As for `Cc1cc(Oc2cccc(CNC(=O)c3ccc(C(F)(F)F)cc3)c2)ccc1OC(C)(C)C(=O)O`, the EC50 in experiment [1] is 1250 nM; in experiment [3], 95 nM. Also, the half-inhibitory concentration (IC50) in experiment [2] was 3490 nM; in experiment [4], 6 nM.

On to `Cc1cc(Oc2cc(F)cc(CNC(=O)c3ccc(C(F)(F)F)cc3F)c2)ccc1OC(C)(C)C(=O)O`, for which the response in experiment [1] was half-maximal at 754 nM (EC50). Further, half-maximal inhibition in experiment [2] (IC50) was put at 728 nM.

For `Cc1cc(Oc2cccc(CNC(=O)c3ccc(C(F)(F)F)cc3Cl)c2)ccc1OC(C)(C)C(=O)O`, the EC50 in experiment [1] came to 836 nM; in experiment [3], 59 nM. The half-maximal inhibitory concentration (IC50) turned out to be 1230 nM in experiment [2] and 3 nM in experiment [4].

Turning to `Cc1ccc(C(=O)NCc2cccc(Oc3ccc(OC(C)(C)C(=O)O)c(C)c3)c2)c(C)c1`, the EC50 in experiment [1] is 1040 nM. For the same compound, the midpoint of inhibition in experiment [2], the IC50, lay at 1750 nM.

`Cc1cc(Oc2cccc(CNC(=O)c3cc4cc(Cl)ccc4n3C)c2)ccc1CCC(=O)O` came in with an EC50 in experiment [5] of 135 nM. In addition, the half-maximal inhibitory concentration (IC50) in experiment [6] amounted to 98 nM.

For orientation: ED50 means the dose at which the effect has come halfway, by size or by number of responders. Compound `CN(CCOc1ccc(CC2SC(=O)NC2=O)cc1)c1ccccn1` (centres undefined) [ROSIGLITAZONE] displayed an ED50 in experiment [7] of 1 mg/kg.
